# In article PMC6919601, “Identification of Plasmodium dipeptidyl aminopeptidase allosteric inhibitors by high throughput screening” (PLoS ONE, 2019):
# Where “and” joins values, the source holds several entries; their conditions need not be identical. Equal entries are not always repeated. About 230 (0.21%) of roughly 110,000 compounds showed an effect of 50% or more. The list shows a part of the results.
# Target: DPAP1 (Plasmodium falciparum, UniProt Q8IIJ9)
# Assay: primary screen, percent inhibition; read by cleavage of a fluorogenic dipeptide substrate; higher = more effect of the substance
# Design: species or system P. falciparum D10 trophozoite lysates; single well
# 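Note: 30 min substrate incubation versus DMSO and 10 µM JCP410 controls.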
# DPAP1, sequence (Q8IIJ9 whole entry, looked up): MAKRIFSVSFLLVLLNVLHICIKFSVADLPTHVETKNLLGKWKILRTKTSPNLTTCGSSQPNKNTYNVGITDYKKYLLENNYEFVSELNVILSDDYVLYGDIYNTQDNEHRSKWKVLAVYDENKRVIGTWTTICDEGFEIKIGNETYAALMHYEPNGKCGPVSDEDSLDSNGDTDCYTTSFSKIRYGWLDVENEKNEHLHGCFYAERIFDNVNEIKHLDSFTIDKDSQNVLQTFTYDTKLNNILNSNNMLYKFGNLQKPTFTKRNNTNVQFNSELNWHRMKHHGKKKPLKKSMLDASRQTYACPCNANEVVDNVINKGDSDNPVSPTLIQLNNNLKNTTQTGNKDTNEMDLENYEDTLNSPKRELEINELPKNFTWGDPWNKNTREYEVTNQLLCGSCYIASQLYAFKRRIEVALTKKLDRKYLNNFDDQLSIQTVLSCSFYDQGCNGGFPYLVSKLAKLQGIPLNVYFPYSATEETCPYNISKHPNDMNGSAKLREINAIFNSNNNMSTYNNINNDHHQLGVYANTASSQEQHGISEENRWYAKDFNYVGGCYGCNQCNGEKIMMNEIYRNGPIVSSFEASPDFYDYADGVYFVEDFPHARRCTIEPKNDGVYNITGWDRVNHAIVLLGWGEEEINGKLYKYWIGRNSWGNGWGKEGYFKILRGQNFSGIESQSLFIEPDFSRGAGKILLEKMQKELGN
row,Structure (SMILES),% Inhibition @ 10 uM
1,CC1CCN(c2c(NCC3CCC(C(=O)NCc4ccc(F)cc4)CC3)c(=O)c2=O)CC1 (stereo not shown),2.84%
2,Clc1ccc(CN2CCN(c3ccccc3)CC2)cc1Cl,-0.0404%
3,Cc1nc2cc(-c3cccc(F)c3)nn2c(C)c1CCC(=O)O,2.39%
4,Cn1cc(CNC(=O)c2sc3cccc(Cl)c3c2Cl)cn1,2.08%
5,Cc1ccc(NC2OC(C)C(O)C(O)C2O)cc1C (stereo not shown),-5.62%
6,O=C(O)c1cccc(S(=O)(=O)N2CCN(Cc3ccc4c(c3)OCO4)CC2)c1,9.21%
7,CCOc1ccc(-c2nc3c(=O)n(C)c(=O)n(C)c3[nH]2)cc1OC,17.6%
8,COc1ccc2[nH]c3c(=O)n(CCC(=O)NC4CCN(Cc5ccccc5)CC4)c(=S)[nH]c3c2c1,-3.95%
9,CC(C)(C)C(=O)CSc1nc(-c2ccccc2)cs1,0.776%
10,Cc1cccn2c(=O)c3cc(C(=O)N4CCN(C(c5ccccc5)c5ccccc5)CC4)n(C)c3nc12,-1.26%
11,Cc1nn(-c2ccc(Br)cc2)c(O)c1/C=N/c1ccccc1C(=O)O,-1.44%
12,CC(C)C[C@H](NC(=O)c1cc(-c2ccccc2)cs1)C(=O)NCC#N,0.174%
13,CCc1nc2nc(C)cc(NC3CCN(Cc4ccccc4)CC3)n2n1,-0.0709%
14,CSc1nc(Oc2ccc(Cl)cc2C)cc(-n2ncc(C#N)c2N)n1,-4.12%
15,O=C(CNC(=S)N(Cc1ccccc1)Cc1ccccc1F)N1CCCC1,4.47%
16,CCN1C(=O)N/C(=C/c2cccn2-c2ccc(C(=O)O)cc2)C1=O,-3.23%
17,COc1ccc(-c2[nH]nc3c2C(c2ccco2)C(C#N)=C(N)O3)cc1 (stereo not shown),-3.16%
18,O=C(Nc1ccc2nc(-c3ccccc3)sc2c1)c1cccs1,9.34%
19,Cc1c2cnn(CC(=O)O)c(=O)c2c(C)n1Cc1ccccc1,-1.75%
20,Cc1cc(C)c2oc(-c3cccc(NC(=O)c4ccccc4Cl)c3)nc2c1,-4.4%
21,CC(C)C[C@@H](CN1CC[C@@H](NC(=O)[C@@H](CC(C)C)NC(=O)OCc2ccccc2)C1)NC(=O)OCc1ccccc1,2.22%
22,COc1cc(C(=O)n2nc(-c3cccnc3)nc2NCc2ccccc2)cc(OC)c1OC,2.01%
23,Cc1ccc(S(=O)(=O)c2nc(S(C)(=O)=O)sc2N2CCc3ccccc3C2)cc1,1.15%
24,CCOCCCNc1nc2c(=O)n(C)c(=O)n(C)c2[nH]1,2.24%
25,CC(=O)N1CCN(c2ccc(NC(=O)COc3cc(Cl)c(Cl)cc3Cl)cc2)CC1,-4.56%

row,Structure (SMILES),% Inhibition @ 10 uM
1,CC(C)(C)C1CCC(OC(=O)CCC(=O)Nc2nccs2)CC1 (stereo not shown),-0.128%
2,Cc1ccc(Cn2c(Sc3nccc(C)n3)nc3c2c(=O)[nH]c(=O)n3C)cc1,2.41%
3,COc1ccc(C)cc1NC(=O)C12CCC(C)(C(=O)C1=O)C2(C)C (stereo not shown),-4.06%
4,CCOC(=O)c1cc(C(=O)OCC)c(C)nc1C,-1.03%
5,COc1cc(C2C(C#N)=C(N)Oc3[nH]nc(-c4ccc(F)cc4)c32)ccc1OCCN1CCOCC1 (stereo not shown),2.46%
6,CCOC(=O)c1cc2c(=O)n3ccccc3nc2n(CCOC)/c1=N\C(=O)C(C)Oc1ccccc1 (stereo not shown),-11.5%
7,COc1ccc(C(=O)NC2CCCCCC2)c(OC)c1,-3.75%
8,COc1ccc(C2C3=C(OC4=C2CC(C)(C)CC4=O)C(=O)CC(C)(C)C3)cc1,-2.56%
9,Cc1nn(CC(=O)NCc2ccc(-n3cccc3)cc2)c(C)c1Br,-0.92%
10,COCCNC(=O)c1ccc(NS(=O)(=O)c2cccc(OC)c2)cc1,-1.61%
11,CCOC(=O)c1c(C)nc2ccccc2c1C(=O)O,6.39%
12,O=C(c1cccs1)N1CCN(Cc2ccccc2F)CC1,1.34%
13,CN(C)c1cc[n+](Cc2ccccn2)cc1,2.48%
14,CCC(C)NC(=O)Cn1ncc2c3ccccc3n(Cc3cc(C)ccc3C)c2c1=O (stereo not shown),-1.58%
15,NC(=O)COc1ccccc1/C=C1/SC(=O)N(Cc2ccccc2F)C1=O,-14.2%
16,Cc1ccc2c(c1)C1CN(C)CCC1N2C(=O)C(F)(F)F (stereo not shown),5.77%
17,O=C1CC(c2ccccc2)CN1C(=O)C12CC3CC(CC(C3)C1)C2 (stereo not shown),5.04%
18,Cc1ccc(S(=O)(=O)NCc2nc(-c3ccccc3)no2)cc1,-4.82%
19,Cc1c(-c2nsc(NC(=O)c3ccco3)n2)nnn1-c1cccc(Cl)c1,7.83%
20,Cc1cccc(C(=O)Nc2c(C(=O)NC(C)(C)C)oc3ccccc23)c1,-0.528%
21,Cc1cccc(NS(=O)(=O)c2ccc(Br)s2)n1,-3.78%
22,COc1cccc(/C=c2\sc3nc(-c4ccccc4OC)nn3c2=O)c1,2.24%
23,O=C(NC(Cc1ccc(-c2ccccc2)cc1)C(=O)NC(CCc1ccccc1)C(=O)CO)OCc1ccccc1 (stereo not shown),-3.34%
24,CCOC(=O)c1cc(-c2ccc(OC)c(S(=O)(=O)N(C)Cc3ccccc3)c2)on1,-3.39%
25,O=C(O)C(Cc1ccccc1)NS(=O)(=O)c1cccc2nsnc12 (stereo not shown),-5.76%

row,Structure (SMILES),% Inhibition @ 10 uM
1,COc1cccc(OC)c1C(=O)Nc1sc2c(c1C(N)=O)CCC(C(C)(C)C)C2 (stereo not shown),8.36%
2,COc1ccc(C(=O)/C=C2\C(=O)N(c3ccccc3)C(=N)N2c2ccccc2)cc1,2.82%
3,O=C(Nc1nc(-c2ccc(Br)cc2)cs1)C1CCCO1 (stereo not shown),12.6%
4,CCOC(=O)/C(=C/c1c[nH]c2ccccc12)NC(C)=O,-1.76%
5,COc1cc(CNC2CCCCC2)cc(OC)c1,-2.37%
6,Cc1nnc(NS(=O)(=O)c2ccc(Cl)cc2)s1,3.96%
7,Nc1c(-c2nc(-c3ccccc3)no2)nnn1-c1ccccc1,-1.01%
8,COc1ccccc1S(=O)(=O)Cc1ccc(C(=O)NCCN(C)C)o1,-4.53%
9,COc1ccccc1CNc1ccc(O)cc1,1.62%
10,COc1cc(OC)cc(C(=O)N2CCN(Cc3ccccc3OC)CC2)c1,-3.58%
11,Cc1nnc(SCC(=O)NC(C)c2ccccc2)nc1O (stereo not shown),8.01%
12,O=S(=O)(c1ccc(S(=O)(=O)C(F)(F)F)cc1)C(F)(F)F,-4.08%
13,O=C(CN(Cc1ccccc1)S(=O)(=O)c1ccc(Br)cc1)N1CCOCC1,1.15%
14,Cc1ccc(-c2nc3c(c(SCC(N)=O)n2)Cc2cccc(C)c2O3)cc1,-1.21%
15,CC(C)CC(=O)N1CCN(Cc2cccnc2)CC1,-9.24%
16,C/C(=N\[C@@H](CSCc1ccccc1OC(F)F)C(=O)NCC#N)NS(=O)(=O)c1ccccc1,4.54%
17,CC1CC(Nc2ccccc2)c2ccccc2N1C(=O)c1cccs1 (stereo not shown),-3.79%
18,COCCNC(=O)c1nn2c(c1Cl)NC(c1ccccc1)CC2C(F)(F)F (stereo not shown),-4.68%
19,CC(C)(C)SCCNC(=O)CN1C(=O)c2ccccc2S1(=O)=O,1.59%
20,O=C1NC(=S)N(c2ccc(Cl)cc2)C(=O)/C1=C/c1ccc(F)cc1,4.98%
21,C=CCn1c(SCC(=O)N2CCOCC2)nc2scc(-c3ccccc3Cl)c2c1=O,-1.06%
22,Cc1ccc(C(=O)C2=C(O)C(=O)N(c3ncccn3)C2c2cccc(Cl)c2)o1 (stereo not shown),-19.3%
23,Clc1nc(Nc2ccccc2)nc(Nc2ccccc2)n1,1.8%
24,Cc1cccc(CN2C[C@@H]3C[C@H](C2)c2cccc(=O)n2C3)c1,-6.22%
25,Cc1cc(C)nc(N2CCN(C(=O)CSc3nc4ccccc4nc3N3CCCCC3)CC2)n1,0.032%

row,Structure (SMILES),% Inhibition @ 10 uM
1,CC(NC(=O)c1csc2ccccc12)C1CC2CCC1C2 (stereo not shown),3.65%
2,CCO/C(O)=C1\C(C)=Nc2nnnn2C1c1ccc(Br)cc1 (stereo not shown),-5.19%
3,CCc1nc2c(c(N)c1C)CCN2C,1.88%
4,COc1cc(OC)c(-c2cc(C(=O)O)ccc2OC)c(OC)c1,-6.49%
5,CC1=CC(C)(C)N(S(=O)(=O)c2ccc(C)cc2)c2ccc(C)cc21,3.01%
6,Cc1ccc(-c2cc(C(F)(F)F)n3nc(C(=O)N4CCN5CCCC5C4)cc3n2)cc1 (stereo not shown),-1.96%
7,Cc1nnn(C23CC4CC(CC(C(=O)N5CCN(C6CCCCC6)CC5)(C4)C2)C3)n1,6.37%
8,CCCOc1ccc(S(=O)(=O)Nc2ccccn2)c2ccccc12,-3.33%
9,CC1CC(C)CN(C(=O)Cn2cc(C=O)c3ccccc32)C1 (stereo not shown),0.51%
10,Cc1nc2nc(CCc3ccccc3)nn2c(O)c1Cc1ccccc1,1%
11,O=C(Nc1c(F)c(F)nc(N2CCCCC2)c1F)c1ccccc1C(=O)N1CCCCC1,-2.73%
12,O=C1NC2(CCCCC2)Cc2ccccc21,-2.35%
13,O=C(NCc1ccco1)c1nc(-c2cccc(F)c2)n2c1CCCCC2,-6.87%
14,COc1ccc(S(=O)(=O)NCc2ccc(C(=O)N3CCN(C)CC3)cc2)cc1,-1.54%
15,Cc1cc(Cl)ccc1OCC(=O)NCc1cccs1,-3.24%
16,N=c1c(S(=O)(=O)c2ccc(Cl)cc2)cc2c(=O)n3ccccc3nc2n1Cc1ccccc1,1.08%
17,N#Cc1c(-c2ccccc2)cc(-c2cc(Br)ccc2O)nc1O,-1.07%
18,CC(C)(C)/C(O)=C/c1nc2ccc(C(=O)O)cc2nc1/C=C(\O)C(C)(C)C,-1.07% and 0.815%
19,Cc1ccnc(NC(=O)C2CCN(S(=O)(=O)c3c(C)noc3/C=C/c3cccs3)CC2)c1,-4.96%
20,Cc1ccc2c(CNCc3ccccc3F)c(C(=O)O)n(Cc3ccccc3C)c2c1,-1.45%
21,Cc1ccc(NC(=O)Nc2ccc(C)c(F)c2)cc1,5.37%
22,CCOC(=O)c1nnn(-c2ccccc2OCC)c1C(=O)OCC,-1.58%
